# In the supplement of paper PMC8728848:
# The list shows a part of the results.
# Experiments:
# Test in all cases: glycan array binding signal (z-score within array); higher = stronger binding
# Conditions in all cases: glycan notation: IUPAC condensed, linker removed; mutation: E41A
# [1] = target: Neu5Ac(a2-3)Gal(b1-3)GlcNAc(b1-6)GalNAc
# Outline: (§1)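 Glycan array binding is given as a within-array Z-score, which can be read as non-binding when negative. The arrays, 3228 of them, came from the Consortium for Functional Glycomics database and were retained only where the protein sequence was available. Z-scores were averaged across arrays of the same protein sequence at different concentrations or buffers and across linkers.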
# [2] = target: Neu5Ac(a2-3)Gal(b1-3)GlcNAc6S
# Outline: as §1
# [3] = target: Neu5Ac(a2-3)Gal(b1-3)[Fuc(a1-4)]GlcNAc
# Outline: as §1
# [4] = target: Neu5Ac(a2-3)Gal(b1-3)[Fuc(a1-4)]GlcNAc(b1-3)Gal(b1-3)[Fuc(a1-4)]GlcNAc
# Outline: as §1
# [5] = target: Neu5Ac(a2-3)Gal(b1-3)[Fuc(a1-4)]GlcNAc(b1-3)Gal(b1-4)[Fuc(a1-3)]GlcNAc
# Outline: as §1
# [6] = target: Neu5Ac(a2-3)Gal(b1-3)[GlcNAc(b1-6)]GalNAc
# Outline: as §1
# [7] = target: Neu5Ac(a2-3)Gal(b1-3)[Neu5Ac(a2-6)]GalNAc
# Outline: as §1
# [8] = target: Neu5Ac(a2-3)Gal(b1-3)[Neu5Ac(a2-6)]GlcNAc(b1-3)[Fuc(a1-3)[Gal(b1-4)]GlcNAc(b1-6)]Gal(b1-4)Glc
# Outline: as §1
# [9] = target: Neu5Ac(a2-3)Gal(b1-3)]Neu5Ac(a2-3)Gal(b1-4)]GlcNAc
# Outline: as §1
# Neu5Ac(a2-3)Gal(b1-4)Glc = target: Neu5Ac(a2-3)Gal(b1-4)Glc
# Outline: as §1
# [10] = target: Neu5Ac(a2-3)Gal(b1-4)GlcNAc
# Outline: as §1
# [11] = target: Neu5Ac(a2-3)Gal(b1-4)GlcNAc(b1-2)Man
# Outline: as §1
# [12] = target: Neu5Ac(a2-3)Gal(b1-4)GlcNAc(b1-2)Man(a1-3)[GlcNAc(b1-4)][Neu5Ac(a2-3)Gal(b1-4)GlcNAc(b1-2)Man(a1-6)]Man(b1-4)GlcNAc(b1-4)GlcNAc
# Outline: as §1
# [13] = target: Neu5Ac(a2-3)Gal(b1-4)GlcNAc(b1-2)Man(a1-3)[Neu5Ac(a2-3)Gal(b1-4)GlcNAc(b1-2)Man(a1-6)]Man(b1-4)GlcNAc(b1-4)GlcNAc
# Outline: as §1
# [14] = target: Neu5Ac(a2-3)Gal(b1-4)GlcNAc(b1-2)Man(a1-3)[Neu5Ac(a2-3)Gal(b1-4)GlcNAc(b1-2)Man(a1-6)]Man(b1-4)GlcNAc(b1-4)[Fuc(a1-6)]GlcNAc
# Outline: as §1
# [15] = target: Neu5Ac(a2-3)Gal(b1-4)GlcNAc(b1-2)Man(a1-3)[Neu5Ac(a2-6)Gal(b1-4)GlcNAc(b1-2)Man(a1-6)]Man(b1-4)GlcNAc(b1-4)GlcNAc
# Outline: as §1
# [16] = target: Neu5Ac(a2-3)Gal(b1-4)GlcNAc(b1-2)[Neu5Ac(a2-3)Gal(b1-4)GlcNAc(b1-4)]Man(a1-3)[GlcNAc(b1-4)][Neu5Ac(a2-3)Gal(b1-4)GlcNAc(b1-2)[Neu5Ac(a2-3)Gal(b1-4)GlcNAc(b1-6)]Man(a1-6)]Man(b1-4)GlcNAc(b1-4)GlcNAc
# Outline: as §1
# [17] = target: Neu5Ac(a2-3)Gal(b1-4)GlcNAc(b1-2)[Neu5Ac(a2-3)Gal(b1-4)GlcNAc(b1-4)]Man(a1-3)[GlcNAc(b1-4)][Neu5Ac(a2-3)Gal(b1-4)GlcNAc(b1-4)Man(a1-6)]Man(b1-4)GlcNAc(b1-4)GlcNAc
# Outline: as §1
# [18] = target: Neu5Ac(a2-3)Gal(b1-4)GlcNAc(b1-2)[Neu5Ac(a2-3)Gal(b1-4)GlcNAc(b1-6)]Man(a1-6)[Neu5Ac(a2-3)Gal(b1-4)GlcNAc(b1-2)Man(a1-3)][GlcNAc(b1-4)]Man(b1-4)GlcNAc(b1-4)GlcNAc
# Outline: as §1
# [19] = target: Neu5Ac(a2-3)Gal(b1-4)GlcNAc(b1-3)Gal
# Outline: as §1
# [20] = target: Neu5Ac(a2-3)Gal(b1-4)GlcNAc(b1-3)Gal(b1-3)GlcNAc
# Outline: as §1
# [21] = target: Neu5Ac(a2-3)Gal(b1-4)GlcNAc(b1-3)Gal(b1-4)GlcNAc
# Outline: as §1
# [22] = target: Neu5Ac(a2-3)Gal(b1-4)GlcNAc(b1-3)Gal(b1-4)GlcNAc(b1-2)Man(a1-3)[Neu5Ac(a2-3)Gal(b1-4)GlcNAc(b1-3)Gal(b1-4)GlcNAc(b1-2)Man(a1-6)]Man(b1-4)GlcNAc(b1-4)GlcNAc
# Outline: as §1
# [23] = target: Neu5Ac(a2-3)Gal(b1-4)GlcNAc(b1-3)Gal(b1-4)GlcNAc(b1-3)Gal(b1-4)GlcNAc
# Outline: as §1
# [24] = target: Neu5Ac(a2-3)Gal(b1-4)GlcNAc(b1-3)Gal(b1-4)GlcNAc(b1-3)Gal(b1-4)GlcNAc(b1-2)Man(a1-3)[Neu5Ac(a2-3)Gal(b1-4)GlcNAc(b1-3)Gal(b1-4)GlcNAc(b1-3)Gal(b1-4)GlcNAc(b1-2)Man(a1-6)]GalNAc
# Outline: as §1
# [25] = target: Neu5Ac(a2-3)Gal(b1-4)GlcNAc(b1-3)Gal(b1-4)GlcNAc(b1-3)GalNAc
# Outline: as §1
# [26] = target: Neu5Ac(a2-3)Gal(b1-4)GlcNAc(b1-3)Gal(b1-4)GlcNAc(b1-3)[Neu5Ac(a2-3)Gal(b1-4)GlcNAc(b1-3)Gal(b1-4)GlcNAc(b1-6)]GalNAc
# Outline: as §1
# [27] = target: Neu5Ac(a2-3)Gal(b1-4)GlcNAc(b1-3)Gal(b1-4)GlcNAc(b1-6)[Gal(b1-3)]GalNAc
# Outline: as §1
# [28] = target: Neu5Ac(a2-3)Gal(b1-4)GlcNAc(b1-3)Gal(b1-4)[Fuc(a1-3)]GlcNAc
# Outline: as §1
# [29] = target: Neu5Ac(a2-3)Gal(b1-4)GlcNAc(b1-3)GalNAc
# Outline: as §1
# [30] = target: Neu5Ac(a2-3)Gal(b1-4)GlcNAc(b1-3)[Neu5Ac(a2-3)Gal(b1-4)GlcNAc(b1-6)]GalNAc
# Outline: as §1
# [31] = target: Neu5Ac(a2-3)Gal(b1-4)GlcNAc(b1-6)GalNAc
# Outline: as §1
# [32] = target: Neu5Ac(a2-3)Gal(b1-4)GlcNAc(b1-6)[Gal(b1-3)]GalNAc
# Outline: as §1
# [33] = target: Neu5Ac(a2-3)Gal(b1-4)GlcNAc(b1-6)[Neu5Ac(a2-3)Gal(b1-3)]GalNAc
# Outline: as §1
# [34] = target: Neu5Ac(a2-3)Gal(b1-4)GlcNAc6S
# Outline: as §1
# [35] = target: Neu5Ac(a2-3)Gal(b1-4)[Fuc(a1-3)]GlcNAc
# Outline: as §1
# [36] = target: Neu5Ac(a2-3)Gal(b1-4)[Fuc(a1-3)]GlcNAc(b1-2)Man
# Outline: as §1
# [37] = target: Neu5Ac(a2-3)Gal(b1-4)[Fuc(a1-3)]GlcNAc(b1-3)Gal
# Outline: as §1
# [38] = target: Neu5Ac(a2-3)Gal(b1-4)[Fuc(a1-3)]GlcNAc(b1-3)Gal(b1-4)GlcNAc
# Outline: as §1
# [39] = target: Neu5Ac(a2-3)Gal(b1-4)[Fuc(a1-3)]GlcNAc(b1-3)Gal(b1-4)[Fuc(a1-3)]GlcNAc(b1-3)Gal(b1-4)[Fuc(a1-3)]GlcNAc
# Outline: as §1
# [40] = target: Neu5Ac(a2-3)Gal(b1-4)[Fuc(a1-3)]GlcNAc(b1-3)GalNAc
# Outline: as §1
# [41] = target: Neu5Ac(a2-3)Gal(b1-4)[Fuc(a1-3)]GlcNAc(b1-6)[Gal(b1-3)]GalNAc
# Outline: as §1
# [42] = target: Neu5Ac(a2-3)Gal(b1-4)[Fuc(a1-3)]GlcNAc(b1-6)[Neu5Ac(a2-3)Gal(b1-3)]GalNAc
# Outline: as §1
# [43] = target: Neu5Ac(a2-3)Gal(b1-4)[Fuc(a1-3)]GlcNAc6S
# Outline: as §1
# [44] = target: Neu5Ac(a2-3)Gal6S(b1-4)GlcNAc
# Outline: as §1
binder,measurement,setting,value
CVN-E41G (protein) MHHHHHHENLYFQSGNFSQACYNSAIQGSVLTSTCIRTNGGYNTSSIDLNSVIANVDGSLKWQGSNFIETCRNTQLAGSSELAAECKTRAQQFVSTKINLDDHIAAIDGTLKYE,glycan array binding signal (z-score),[1],0.085
same,glycan array binding signal (z-score),[2],0.005
same,glycan array binding signal (z-score),[3],-0.222
same,glycan array binding signal (z-score),[4],-0.227
same,glycan array binding signal (z-score),[5],0.264
same,glycan array binding signal (z-score),[6],-0.178
same,glycan array binding signal (z-score),[7],-0.179
same,glycan array binding signal (z-score),[8],-0.094
same,glycan array binding signal (z-score),[9],-0.239
same,glycan array binding signal (z-score),Neu5Ac(a2-3)Gal(b1-4)Glc,-0.158
same,glycan array binding signal (z-score),[10],-0.212
same,glycan array binding signal (z-score),[11],0.044
same,glycan array binding signal (z-score),[12],-0.212
same,glycan array binding signal (z-score),[13],-0.223
same,glycan array binding signal (z-score),[14],-0.205
same,glycan array binding signal (z-score),[15],-0.136
same,glycan array binding signal (z-score),[16],-0.177
same,glycan array binding signal (z-score),[17],-0.171
same,glycan array binding signal (z-score),[18],-0.141
same,glycan array binding signal (z-score),[19],-0.214
same,glycan array binding signal (z-score),[20],-0.228
same,glycan array binding signal (z-score),[21],-0.075
same,glycan array binding signal (z-score),[22],0.015
same,glycan array binding signal (z-score),[23],-0.131
same,glycan array binding signal (z-score),[24],0.18
same,glycan array binding signal (z-score),[25],-0.174
same,glycan array binding signal (z-score),[26],-0.218
same,glycan array binding signal (z-score),[27],-0.198
same,glycan array binding signal (z-score),[28],-0.225
same,glycan array binding signal (z-score),[29],-0.003
same,glycan array binding signal (z-score),[30],-0.228
same,glycan array binding signal (z-score),[31],-0.142
same,glycan array binding signal (z-score),[32],0.106
same,glycan array binding signal (z-score),[33],-0.227
same,glycan array binding signal (z-score),[34],-0.24
same,glycan array binding signal (z-score),[35],-0.239
same,glycan array binding signal (z-score),[36],-0.141
same,glycan array binding signal (z-score),[37],-0.245
same,glycan array binding signal (z-score),[38],0.004
same,glycan array binding signal (z-score),[39],0.027
same,glycan array binding signal (z-score),[40],0.083
same,glycan array binding signal (z-score),[41],-0.212
same,glycan array binding signal (z-score),[42],-0.162
same,glycan array binding signal (z-score),[43],-0.159
same,glycan array binding signal (z-score),[44],-0.201
